# Screen size: about 310,000 compounds; about 2,200 (0.71%) showed an effect of 50% or more. Effects have a minus sign here. The list shows a part of the results.
# Target: human ether-à-go-go-related gene (hERG) potassium channel (human, UniProt Q12809)
# Assay: primary screen, population patch clamp on CHO cells stably expressing hERG
# Sequence of human ether-à-go-go-related gene (hERG) potassium channel (Q12809 whole entry, looked up): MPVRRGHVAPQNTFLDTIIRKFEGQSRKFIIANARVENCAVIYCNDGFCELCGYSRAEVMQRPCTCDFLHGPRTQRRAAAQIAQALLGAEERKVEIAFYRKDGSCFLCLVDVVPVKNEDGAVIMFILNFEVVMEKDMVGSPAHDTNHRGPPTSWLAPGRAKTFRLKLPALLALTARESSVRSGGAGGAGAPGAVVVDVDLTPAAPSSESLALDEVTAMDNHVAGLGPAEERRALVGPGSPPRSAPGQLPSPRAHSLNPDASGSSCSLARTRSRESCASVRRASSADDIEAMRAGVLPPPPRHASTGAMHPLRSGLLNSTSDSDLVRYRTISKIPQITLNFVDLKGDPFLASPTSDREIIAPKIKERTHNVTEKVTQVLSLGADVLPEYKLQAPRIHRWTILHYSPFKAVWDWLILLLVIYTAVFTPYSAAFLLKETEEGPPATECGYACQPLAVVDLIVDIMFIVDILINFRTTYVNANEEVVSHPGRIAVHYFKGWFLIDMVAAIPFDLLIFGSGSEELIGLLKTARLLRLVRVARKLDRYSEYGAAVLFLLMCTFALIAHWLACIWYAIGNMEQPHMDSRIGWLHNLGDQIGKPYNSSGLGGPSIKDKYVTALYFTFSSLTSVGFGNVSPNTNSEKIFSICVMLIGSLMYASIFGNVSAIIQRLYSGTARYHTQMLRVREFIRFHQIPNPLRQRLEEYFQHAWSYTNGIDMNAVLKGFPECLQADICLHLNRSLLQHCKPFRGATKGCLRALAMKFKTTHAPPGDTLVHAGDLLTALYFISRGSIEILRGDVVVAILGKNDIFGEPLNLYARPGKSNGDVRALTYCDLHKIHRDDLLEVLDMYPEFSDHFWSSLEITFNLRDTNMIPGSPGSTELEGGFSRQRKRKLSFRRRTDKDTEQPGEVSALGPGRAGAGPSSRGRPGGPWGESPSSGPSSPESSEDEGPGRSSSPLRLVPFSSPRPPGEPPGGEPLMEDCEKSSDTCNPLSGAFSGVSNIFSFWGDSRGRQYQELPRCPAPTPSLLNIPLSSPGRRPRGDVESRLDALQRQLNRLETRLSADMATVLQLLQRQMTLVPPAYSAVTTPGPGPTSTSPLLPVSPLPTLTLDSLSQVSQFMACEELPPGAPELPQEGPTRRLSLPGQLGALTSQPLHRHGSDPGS
row,SMILES,"hERG current change (%, negative = inhibition) at 1uM [%]"
1,CCC(=O)N1c2ccccc2-c2nnc(SC)nc2OC1c1ccc(OC)c(OC)c1 (stereo not shown),8.23
2,COc1ccc(CC(=O)N2CCc3ccccc32)cc1,1.15
3,Cc1cccc(C(=O)NCC(=O)OCC(=O)NC2CCCCCCC2)c1,16.2
4,COc1ccc(C(=O)NCCCNC(=O)c2ccccn2)cc1,13.2
5,COC(=O)CCn1nc(-c2ccc(Cl)cc2)c2ccccc2c1=O,0.35
6,Cc1cc(-c2nc3ccccc3[nH]2)ccc1N,21.2
7,Cc1cc(C)n(-c2ccc(C(=O)OCC(=O)Nc3ccc(S(=O)(=O)N4CCOCC4)cc3)cc2)n1,11.9
8,O=S(=O)(c1ccccc1)N1CCN=C1SCc1ccc(Cl)c(Cl)c1,9.41
9,Cc1cc(-c2ccccc2)nc2oc(C(=O)NN)c(N)c12,14.8
10,O=C(N/N=C/c1ccc(F)cc1)c1cc[n+]([O-])cc1,14.4
11,CS(=O)(=O)N1CCC(C(=O)Nc2cccc(F)c2)CC1,16.6
12,O=C(NCc1nnc(SCC(=O)N2CCN(c3ccccc3)CC2)o1)c1ccccc1,15.4
13,CCOc1ccc(Cc2noc3c2C(=O)CC(C)(C)C3)cc1OCC,7.09
14,CCSc1ncc(Cl)c(C(=O)Nc2ccccc2F)n1,16.9
15,C=CCNS(=O)(=O)c1cc(S(=O)(=O)NCC=C)c(OC)cc1OC,11.1
16,O=C(CN(C(=O)CCC(=O)Nc1ccccn1)C1CCCC1)NCc1ccc(F)cc1,0.916
17,O=C(NCc1cccnc1)C1CC(c2ccc(Cl)c(Cl)c2)=NO1 (stereo not shown),-7.1
18,CCC(=O)OCC(=O)Nc1ccc([N+](=O)[O-])cc1OC,9.97
19,COc1ccc(-c2nn(CC(=O)Nc3ccc(Cl)c(Cl)c3)c(=O)c3ccccc23)cc1,2.63
20,CN(C)c1ccc(CCN2CCOCC2)cc1,22
21,O=C(O)c1ccc(Oc2ccccc2)o1,11
22,CNc1nc2c(-c3ccc(Cl)cc3)nnn2c2ccccc12,12.1

row,SMILES,"hERG current change (%, negative = inhibition) at 1uM [%]"
1,CCCCn1c(N)c(N(CCOC)C(=O)CCNC(=O)c2ccccc2Cl)c(=O)[nH]c1=O,10.6
2,O=C(COc1ccccc1Cl)Nc1cnn(Cc2ccccc2)c1,9.23
3,Cc1cccc([C@@H]2C[C@H]3CN(Cc4cccc(Cl)c4)C(=O)[C@]34CCCN24)n1,-26
4,Cc1ccc(OC(F)F)c(N2C(=O)C3C4CCC(O4)C3C2=O)c1 (stereo not shown),11
5,O=C(NCCc1cccs1)C1CC(c2cccc([N+](=O)[O-])c2)=NO1 (stereo not shown),-3.65
6,COc1ccc(OCc2nnc(SCC(=O)O)n2N)cc1,20.5
7,CCN(/N=C/C=C/c1ccccc1)c1cc(=O)n(C)c(=O)[nH]1,17.9
8,O=C(O)C1CCN(C(=O)c2cccc3ccccc23)CC1,8.82
9,CC1CC(C)CN(C(=O)COC(=O)C2CCN(S(=O)(=O)c3c(Cl)cccc3Cl)CC2)C1 (stereo not shown),10.1
10,CCOC(=O)C1=C(C)NC(=O)C(C#N)C1c1ccco1 (stereo not shown),4.9
11,Cc1ccc(Nc2c([N+](=O)[O-])c(=O)n(C)c3ccccc23)cc1,6.86
12,CN(C)C(=O)CCSc1nnc(-c2ccco2)o1,10.2
13,NC(=O)CC(NC(=O)Cc1cccc2ccccc12)c1ccc(N2CCN(c3ccccn3)CC2)c([N+](=O)[O-])c1 (stereo not shown),15.9
14,CCC(C)NC(=O)c1cc2cc3ccc(OC)cc3nc2o1 (stereo not shown),11
15,Cc1cc(C)c(Cn2c(=O)n(CCCC(=O)NCc3ccco3)c(=O)c3sccc32)c(C)c1,0.0553
16,O=C(COC(=O)c1ccc(O)cc1)Nc1ccccc1[N+](=O)[O-],11.9
17,CCCN1C(=O)/C(=N\OCC(=O)Nc2ccc(C(C)C)cc2)c2ccccc21,8.32
18,Cc1ccsc1/C=N/NC(=O)C1CC(=O)N(c2ccc(F)cc2)C1 (stereo not shown),2.12
19,C[C@@]1(CO)[C@H](O)CC[C@@]2(C)[C@H]1CC[C@H]1C[C@@H]3C[C@@]12CC[C@]3(O)CO,10.3
20,COc1ccc(CN(C)c2ccc(S(=O)(=O)N3CCN(C)CC3)cc2[N+](=O)[O-])cc1OC,12.8
21,Cc1ccc(C(=O)N/N=C/c2ccc(S(=O)(=O)[O-])o2)c(Cl)c1.[Na+],9.84
